Source: PMC10726135
The other results are listed elsewhere or left out. At the low end of the ranking, values are background and their order means little. The protein was read in a cell extract, so binding may be indirect.

These sequences were tested against T1, HNF4alpha8 (COS-7 nuclear extract) (UniProt P41235-5) (assay: protein-binding microarray). Conditions: COS-7 nuclear extract on double-stranded Agilent 4x180k PBM; binding buffer, salt, pH and temperature not given; high values mean tight binding; double strand, one strand shown; sequences stand for … in …GCCTAGGGAGATTAGAGTATCGGTCGA.
T1 sequence: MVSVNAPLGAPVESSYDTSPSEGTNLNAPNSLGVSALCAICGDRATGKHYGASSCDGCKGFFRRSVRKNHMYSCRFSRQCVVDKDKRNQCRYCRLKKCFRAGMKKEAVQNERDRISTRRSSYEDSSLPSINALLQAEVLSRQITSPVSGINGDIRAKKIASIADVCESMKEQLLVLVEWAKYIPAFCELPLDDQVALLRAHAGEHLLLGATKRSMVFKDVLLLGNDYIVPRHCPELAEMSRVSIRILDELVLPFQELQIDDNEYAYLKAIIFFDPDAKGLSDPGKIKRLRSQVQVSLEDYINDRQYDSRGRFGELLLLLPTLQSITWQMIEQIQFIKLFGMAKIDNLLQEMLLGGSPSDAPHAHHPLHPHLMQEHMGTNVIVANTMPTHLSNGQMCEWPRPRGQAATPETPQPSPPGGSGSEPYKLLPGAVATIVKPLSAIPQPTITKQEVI

Sequence | binding signal (log2 normalized intensity)
AGATGCTTTGAAGTGTAAAAGGATCATGGA | 1.06
AATGATGTTTACATTCCAGAAAAGGCCTAA | -0.123
GCGCGTGTTCCCGTCCGTGCGGTCGGGCGC | -0.252
GTACAAAGCCCCATATTCATAGACTCTGCA | 0.876
GTGTGAAGTAATCCCCAGTATAAACAACAC | 1.77
CAGTTTGTTCTTGGGGCCCACAGAGTCCAG | 2.79
AAACACCCACCTTGTTATCTTGTCTCTTCT | 0.98
TTTCTGTCTAGGTGCCAGAATTGCTGCTCC | -0.986
ACCGATTGTGTTTTAGGCAAACATTTGCGC | 0.525
GGGCTGCGGAGGCGACTGCAGATTGACCTG | 3.98
CAAAAGAGAAAACTCCCTCAGAGATGTTTA | -1.33
GCTGAATTCCCATCTAAGACTTTATTTGAA | -1.39
GCATCTGTTTTTATTTCCCCTTTCTGTTGG | 2.17
AAACTCTGAAGGCAAATTCTTAGAATTGCA | -0.745
CTAAATGGTAGGATTGTTTGGGGATTACAC | -0.0975
ACTGATGCTCATAGCTACGGGTGACCTTGA | 4.03
GCAAAACCTGATGTTTGGACAGTGTGACTC | 1.54
TTTATTAGGGGTCAGCAAAGAACTCCCCAG | 2.41
CCCAGGCCGTTGGACCAAGCTCTAGCATCC | -1.35
GGGTTTGACCGTTCTCTCCGGGTAAAGGTG | 1.97
GAGGTGTCAGCCACCCCTCCTCCTGGGGGC | 2.93
CCTCCCCGCCACCCCCCAGAGGGCCATCTA | 5.88
TCAGGCTGAGGTGCTCTCAGATAAGAGATG | -1.24
CAGTGTTTACCGGATGAAAAGTGTTTGCCA | 1.03

Sequence | binding signal (log2 normalized intensity)
CACAAAGTACAGCTTTTTGTTTGTGTAAGT | 1.67
GGGAGGCCGCTGACAAGCAGCCTCAGTGGC | -1.26
GGGGCCCACTGAGACGGGCTGAGGATGAGG | -1.01
CATCTGGGGAAAGTGCAAGGGCCCAGAGGA | -1.28
GAGGACTTTGGCCTTTTGTGAGATATGGAC | 4.16
GTGAAACACAGGACTTGATCCAGGGCAAAG | -1.39
GCTGGAATCTTGATAATGCCCTGACCCTAG | 3.51
CGTGAAAGTTAACTTTGTAACTAACAACTG | 0.51
GCGCCCCCGTGTGGCCGCGAGCACCGCGCG | 2.79
TGCTCCTGCACTTTTGTGCTCTGTACCCGG | 2.93
GCCTTAAGAGTCAAAGGGCAAAGGAATAAA | 2.23
GTGGGAAAATTCCCCAGGAGGAGATAAGAT | -1.22
CCTTCGTTTGCTTTTCCTTATCATCACATG | 1.62
TTTGCCCTCTCTTCAGCACCTTTTAAAATA | -0.0592
GCAATCACAAGGAATGCCCTTATCTCCCAG | 0.329
CAATCTTGTTGGGTCAGTTTATCGAAAATC | 0.992
GCCTCCACTCCTCCTCCTTCCCTCCTGCTC | 1
AAAAAGTCCCTGGTCCCATAGGAAAGTGAG | -0.813
CATCAAAGCCAGGACTTCTAGAGTGAGCCA | -1.38
GAAGAGGACTTTTTTTTGCCTAACTGCTGC | -1.35
GTGAAGGACACAGAATGACTTTCAGAAAGT | -0.0152
GGGGCTGGGCCCCACAGTGCATCTGATAAG | -1.21
GTTTCTCCACAGCCTCACCAACAGGATTGT | -1.25
AAAAACACCTGGTTCCTTGCAAGATAAGGG | -0.239
